# Source: the supplement of paper PMC7826260
# The other results are listed elsewhere or left out. Each Rep nickase domain was tested in vitro on the same pool of single strands at 3 µM enzyme and 37 °C for 1 h; the strands have 90 letters, of which the middle is given. Numbers give uncut DNA relative to the enzyme-free pool, as log2; uncut sequences lie near 0, cut ones below; no hit call is given. Counts are relative to all reads, so uncut sequences can rise above 0 when many others are cut.
# Experiments:
# Assay in all cases: uncleaved DNA left, log2 of reads against the no-enzyme library (log2 ratio); higher = less cleavage (more negative = more Rep cleavage of the k-mer); sequences stand for … in CTCGTCCG…ACCGGAGA
# [1] = system: T1, Rep nickase domain of Muscovy duck circovirus
# T1 sequence (residues 1-111, tag not shown): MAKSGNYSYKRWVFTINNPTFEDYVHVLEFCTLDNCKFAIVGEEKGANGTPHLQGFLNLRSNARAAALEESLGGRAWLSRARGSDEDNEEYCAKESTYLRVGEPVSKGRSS
# Protocol: (§1)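 A pool of 90-nt single-stranded DNAs with seven random bases just before the constant AC of the nick site (name = the seven bases) was cut by 3 µM recombinant His6-SUMO-tagged Rep nickase domain (300 nM DNA, 50 mM HEPES pH 8.0, 50 mM NaCl, 1 mM MnCl2, 1 h, 37 °C, three replicates). Uncut DNA was amplified and sequenced.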
# [2] = system: T2, Rep nickase domain of banana bunchy top virus
# T2 sequence (residues 1-94, tag not shown): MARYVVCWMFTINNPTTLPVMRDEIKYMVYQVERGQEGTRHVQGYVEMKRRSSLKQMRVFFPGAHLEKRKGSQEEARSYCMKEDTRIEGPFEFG
# Protocol: as §1
# [3] = system: T3, Rep nickase domain of cabbage leaf curl virus
# T3 sequence (residues 1-116, tag not shown): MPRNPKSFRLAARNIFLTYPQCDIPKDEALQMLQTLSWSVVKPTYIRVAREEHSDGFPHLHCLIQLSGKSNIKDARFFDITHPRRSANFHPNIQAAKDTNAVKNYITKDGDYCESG
# Protocol: as §1
# [4] = system: T4, Rep nickase domain of chickpea chlorotic dwarf virus
# T4 sequence (residues 1-124, tag not shown): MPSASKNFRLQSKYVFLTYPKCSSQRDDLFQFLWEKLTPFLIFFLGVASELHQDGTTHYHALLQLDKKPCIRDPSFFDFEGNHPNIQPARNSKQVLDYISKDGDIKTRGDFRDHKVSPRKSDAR
# Protocol: as §1
# [5] = system: T5, Rep nickase domain of faba bean necrotic yellows virus
# T5 sequence (residues 1-98, tag not shown): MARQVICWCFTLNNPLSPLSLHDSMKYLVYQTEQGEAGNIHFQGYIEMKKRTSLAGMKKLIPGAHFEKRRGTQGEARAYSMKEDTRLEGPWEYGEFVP
# Protocol: as §1
# [6] = system: T6, Rep nickase domain of maize striate mosaic virus
# T6 sequence (residues 1-117, tag not shown): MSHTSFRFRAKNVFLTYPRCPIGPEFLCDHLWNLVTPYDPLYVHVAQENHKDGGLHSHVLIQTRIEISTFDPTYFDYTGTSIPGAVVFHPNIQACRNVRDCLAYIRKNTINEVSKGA
# Protocol: as §1
# [7] = system: T7, Rep nickase domain of porcine circovirus 2
# T7 sequence (residues 2-116, tag not shown): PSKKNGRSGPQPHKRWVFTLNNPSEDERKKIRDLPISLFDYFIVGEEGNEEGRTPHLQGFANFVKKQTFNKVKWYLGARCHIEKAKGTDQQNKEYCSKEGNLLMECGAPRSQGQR
# Protocol: as §1
# [8] = system: T8, Rep nickase domain of tomato golden mosaic virus
# T8 sequence (residues 1-124, tag not shown): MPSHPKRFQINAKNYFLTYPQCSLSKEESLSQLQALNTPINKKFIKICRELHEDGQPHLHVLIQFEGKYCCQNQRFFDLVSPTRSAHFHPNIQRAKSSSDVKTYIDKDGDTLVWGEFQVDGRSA
# Protocol: as §1
# [9] = system: T9, Rep nickase domain of tomato yellow leaf curl virus
# T9 sequence (residues 1-136, tag not shown): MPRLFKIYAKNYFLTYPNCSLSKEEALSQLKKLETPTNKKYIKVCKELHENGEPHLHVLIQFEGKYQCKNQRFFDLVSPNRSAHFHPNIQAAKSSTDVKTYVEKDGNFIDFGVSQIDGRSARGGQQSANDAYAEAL
# Protocol: as §1
# [10] = system: T10, Rep nickase domain of wheat dwarf virus
# T10 sequence (residues 1-137, tag not shown): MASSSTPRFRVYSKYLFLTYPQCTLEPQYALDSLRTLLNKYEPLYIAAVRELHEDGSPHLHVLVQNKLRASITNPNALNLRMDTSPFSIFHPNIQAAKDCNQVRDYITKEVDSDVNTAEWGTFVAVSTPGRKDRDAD
# Protocol: as §1
Sequence,uncleaved DNA left (log2) [1],uncleaved DNA left (log2) [2],uncleaved DNA left (log2) [3],uncleaved DNA left (log2) [4],uncleaved DNA left (log2) [5],uncleaved DNA left (log2) [6],uncleaved DNA left (log2) [7],uncleaved DNA left (log2) [8],uncleaved DNA left (log2) [9],uncleaved DNA left (log2) [10]
CCCGGAG,0.0258,-0.0875,-0.316,-0.242,-0.0011,-0.799,0.107,0.0652,0.0721,-0.108
GTCACAC,0.0453,0.0268,0.324,0.954,-0.0373,1.58,0.112,0.0811,0.137,0.164
CTGGTTA,-0.115,-0.12,-0.173,-0.891,-0.0554,-0.179,-0.0202,-0.0503,-0.21,-0.132
GGTGTGA,0.248,0.135,0.37,0.936,0.0539,1.19,0.248,0.124,0.122,0.148
GCACCTT,0.14,0.0691,0.00199,-1.13,0.0416,0.407,-0.205,0.0187,0.193,0.135
CCCCTAT,0.0336,-0.00293,0.0807,-0.871,0.0425,-0.288,-0.0976,0.0724,-0.127,-0.0975
GCCGTTG,-0.0169,-0.228,-0.234,-0.238,-0.0685,-0.736,-0.0664,-0.0951,-0.117,-0.122
CCACTGG,-0.112,-0.0851,-0.188,0.0803,-0.104,-0.502,0.0551,-0.045,-0.0656,-0.0104
TTACGAT,0.136,-0.145,-0.179,-2.11,-0.0939,0.275,-0.187,-0.138,-0.145,-0.192
CTAATGT,0.0704,-0.12,0.127,-0.498,-0.00575,-0.828,-0.177,-0.0546,-0.0917,-0.102
CCTCAGA,-0.00641,0.0745,0.143,0.0653,-0.0161,-0.17,0.0768,0.165,-0.103,0.0174
CCATCTT,-3.29,-0.162,-0.584,-2.58,0.0557,-0.763,-3.19,-0.173,0.0432,-0.213
GTTTGTT,-1.64,0.00292,0.324,0.453,-0.0272,1.44,-2.09,0.18,-0.0157,-0.107
TACGGAC,-0.0187,-0.0965,0.349,0.978,-0.0221,0.963,0.0216,0.0597,0.0097,-0.00988
TATTGTG,0.0274,-0.0763,-0.492,0.9,0.0802,-0.227,0.181,0.0154,0.143,0.0118
TATTTAG,-0.154,-0.00471,-0.708,-0.683,0.0509,-1.2,0.0222,0.0406,-0.0828,-0.033
CGTCCAC,-0.0523,-0.112,0.0531,-0.0343,-0.121,-0.381,0.00571,-0.184,-0.0151,0.143
CTCTAAA,0.0828,0.00477,-0.15,-0.108,0.0286,-0.658,0.0496,0.0131,-0.0449,0.0766
TGGTTAT,-0.236,-0.0615,0.349,0.527,-0.0806,1.29,-1.22,-0.00108,0.0517,0.0738
GGGTCAC,0.0582,0.0581,0.814,1.9,-0.00923,2.25,0.215,0.0319,0.016,0.0682
GTGGAAG,0.046,0.0754,0.312,0.638,-0.00635,0.314,0.165,0.135,0.159,0.114
CACTTGG,0.0375,-0.0733,-0.679,-0.579,-0.0424,-1.13,-0.0593,-0.143,0.0192,-0.151
GCCCACC,-0.0275,0.0232,0.148,0.123,-0.0477,0.195,-0.144,-0.0561,-0.183,0.051
CTGTCCT,-0.342,-0.0709,-0.00673,-1.57,-0.0934,0.0964,-1.53,-0.0444,-0.149,-0.0476
ACTACGC,-0.0228,-0.074,-0.136,-0.333,0.0619,-1.13,0.119,-0.15,-0.0927,-0.112
GGGGCTT,0.0185,0.0467,0.865,1.93,0.0348,2.25,0.203,0.0968,-0.152,0.0506
GAGGATA,0.0658,0.198,0.68,1.67,0.0388,2,0.18,0.139,0.0774,0.297
ATATGGA,0.0486,-0.0951,0.0173,0.198,0.0634,-0.217,0.0547,-0.00162,-0.0435,0.12
CACTTTT,-3.7,-3.25,-1.86,-2.82,-0.512,-1.08,-3.58,-0.563,-0.0428,-0.277
GTTAGTT,-0.0414,-0.0705,0.176,0.513,-0.103,1.51,-0.0878,-0.00605,0.0324,-0.035
